Laboratory results reported in PubChem BioAssay AID493208 (National Center for Advancing Translational Sciences (NCATS), 2011).
In all, about 44,000 compounds went through this assay and about 340 (0.77%) were called active. Another 5% or so got no clear call; they are omitted. Calls come from the whole dose curve; as a rule, active = well fitted inhibition curve with a large enough effect; inconclusive = small, poorly fitted or top-dose-only effect; inactive = flat fitted curve, though single readings scatter. The list shows a part of the results.

Assay: Acumen qHTS Assay for Inhibitors of the mTORC1 Signaling Pathway in MEF (Tsc2-/-, p53-/-) Cells: Sytravon;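 note: plate controls were DMSO for no effect and rapamycin for full effect; nearly all actives have a fitted effect of over 50% in size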
Settings: phospho-rpS6 immunofluorescence/PI, 24 h; series mostly up to 38.3 µM; activity change, negative = inhibition: at the top concentration
In short: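 Compounds act on Tsc2-/-, p53-/- fibroblasts carrying an empty vector for 24 h before fixation and dual staining for phospho-S6 and DNA (propidium iodide). Values are percentages of cells above a rapamycin-defined pS6/PI threshold.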

Activity change, negative = inhibition, inactive:
COc1nnc(-c2ccc(N3CCCCC3)c(NC(=O)c3ccc(Cl)cc3)c2)c2ccccc12 -0.176%
CCc1cc(=O)[nH]c(SCc2nc(-c3ccccc3C)no2)n1 -17.8%
CCOC(=O)C1CCN(c2ncnc3c2c(-c2ccccc2)cn3-c2ccc(C)c(Cl)c2)CC1 11.7%
COc1ccc(OC)c(NC(=O)c2nc(SCc3ccc(F)cc3)ncc2Cl)c1 1.45%
O=C(NCCc1csc(-c2ccc(F)cc2)n1)C(=O)Nc1ccc(Cl)cc1 -7.68%
CCC(=O)N1c2ccc(S(=O)(=O)NCCc3ccccc3)cc2CC1C (stereo not drawn) -4.54%
O=C(/C=C/c1cn(CC(O)CN2CCc3ccccc32)c2ccccc12)c1ccc(Br)cc1 (stereo not drawn) -17.5%
COC(=O)c1ccccc1NC(=O)N(Cc1ccc(C)cc1)Cc1cccn1-c1nnc(N2CCCC2=O)s1 -0.0801%
CCOC(=O)c1[nH]c(C)c(CCC(=O)NCc2ccc(OC(C)C)cc2)c1C -1.64%
COc1ccc(C)cc1NC(=O)C1CCN(S(=O)(=O)c2cccc3nonc23)CC1 -20.1%
Cc1ccc(CNS(=O)(=O)c2c(C(=O)N3CCC(C)CC3)c(C)n(C)c2C)cc1 3.61%
Cc1cc(Nc2cccc(O)c2)c2cccc(Br)c2n1 -0.81%
Cc1sc2ncn(CC(=O)Nc3ccc(C(F)(F)F)cc3)c(=O)c2c1S(=O)(=O)N1CCN(C)CC1 -3.06%
Cc1cccc(NC(=O)CSc2nnc3c4ccccc4n(C)c3n2)c1 -1.96%
CCc1ccc(S(=O)(=O)c2cn(CC(=O)Nc3cccc(C)c3)c3ccc(Cl)cc3c2=O)cc1 1.38%
Cc1cc(/C=C(\C#N)C(=O)Nc2ccccc2)c(C)n1-c1ccc(F)cc1 0.374%
COC(=O)c1ccccc1NC(=O)c1sc2nc(C)cc(C)c2c1NC(=O)c1ccccc1Cl -11.6%
COc1ccc(NC(=O)c2cc(C(C)=O)n3ccccc23)cc1Cl -4.54%
COc1ccc2c(CNCc3cccs3)c(C(=O)O)n(Cc3cccc(F)c3)c2c1 -8.33%
COc1ccc(NC(=O)c2ncoc2-c2ccco2)cc1Cl 0%
CCOC(=O)c1cccc(NC(=O)C2CCN(S(=O)(=O)c3c(C)noc3/C=C/c3ccc(C)cc3)CC2)c1 -4.88%
O=C(Cc1ccccc1)Nc1sc2c(c1C(=O)Nc1ccccc1Cl)CCCC2 8.27%
COc1cc(NC(=O)c2nc(-c3ccc(Cl)cc3)n3c2CCCCC3)cc(OC)c1OC -5.88%
Cc1cccc(C(=O)Nc2ccc3nc(SCC(=O)N4CCc5ccccc54)sc3c2)c1 -9.14%
COc1ccc(OC)c(-c2nnc3n(CCc4ccccc4)c(=O)c4ccccc4n23)c1 -0.238%
COc1ccc(CNC(=O)Cn2ccc3cc(S(=O)(=O)N4CCCC4)ccc32)c(OC)c1 0.978%
CCn1c(=O)n(-c2ccc3c(c2)OCO3)c2nc(-c3cc(OC)ccc3OC)nc(C(N)=O)c21 -8.17%
COc1ccc(CNC(=O)c2cc(C3CC3)nc3c2c(C)nn3-c2cccc(Cl)c2C)cc1 3.21%
COc1ccc(CNC(=O)c2ccc(NC(=O)N3CCSc4ncccc43)cc2)c(OC)c1 -6.2%
Cc1ccccc1C(=O)Nc1cccc(C(=O)OCc2cc(=O)n3c(C)csc3n2)c1 0%
CCOc1ccc2oc(=O)cc(CN3CCN(C(=O)c4cccc(Cl)c4)CC3)c2c1 2.76%
Cc1ccc(C)c(Nc2nn3c(=O)c4ccc(C(=O)N(C)Cc5ccccc5)cc4nc3s2)c1 -2.32%
CCOC(=O)c1sc2ncn(CC(=O)Nc3cc(C)cc(C)c3)c(=O)c2c1C -0.644%
COC(=O)c1ccccc1NC(=O)Cn1c(=O)cc(-c2ccccc2)c2c(C)nn(C)c21 2.43%
O=C(NCc1ccccc1F)c1cc2ccccn2n1 -7.28%
Cc1ccc(CN2CCc3nc(N4CCN(c5ccccc5F)CC4)ncc3C2)s1 0%
Cc1ccc2oc(=O)c3cc(C(=O)NCc4ccc(Cl)cc4)sc3c2c1 0.88%
Cc1ccc(NC(=O)C2CCCN2S(=O)(=O)c2cccc3nsnc23)c(Br)c1 (stereo not drawn) 4.88%
COc1ccc(CNC(=O)c2ccc(NC(=O)N3CCCCc4ccccc43)cc2)c(OC)c1 -10%
Cc1cc(SCC(=O)NCc2ccccc2Cl)nc(=O)[nH]1 2.49%
Cc1cccc(-c2nc(C)c(CCNC(=O)C(=O)Nc3c(C)cc(C)cc3C)s2)c1 -4.09%
COc1ccc(-c2csc3nc(-c4ccc(F)cc4)oc(=O)c23)cc1OC -0.118%
Cc1ccc(-c2noc(CSc3nnc(C)n3-c3ccc(F)cc3)n2)cc1 -6.06%
Cc1cccc(C)c1NC(=O)CCS(=O)(=O)c1ccc2c(c1)n(C)c(=O)c(=O)n2C -3.69%
Cc1cc(O)c(C(c2ccccc2)N2CCN(c3ccccc3F)CC2)c(=O)n1Cc1ccco1 (stereo not drawn) 6.69%
CCC(=O)N1CCc2cc(Br)cc(S(=O)(=O)CCC(=O)NCc3ccc(C)cc3)c21 1.07%
COC(=O)c1sc(S(=O)(=O)N2CCN(c3ccc(OC)cc3)CC2)c(C(=O)OC)c1C -19.9%
COc1ccc(CNC(=O)C(=O)Nc2ccccc2OC)cc1 5.44%
COc1ccc(OC)c(NC(=O)CSc2nccn2-c2cc(C)cc(C)c2)c1 -1.47%
CC(=O)Nc1c(C)nn(-c2ccccc2)c1N1CCC(C(=O)Nc2ccc(Cl)cc2C)CC1 -16.3%
COc1cc(NC(=O)CN2C(=O)C(c3ccc(C)cc3)=NC23CCCCCC3)cc(OC)c1 -5.32%
Cc1ccc(-c2nc3ccccc3[nH]2)cc1NC(=O)COc1ccc(Cl)cc1Cl -1.45%
COc1ccc(N2CCN(C(=O)CCc3nnc4n(C)c(=O)c5sccc5n34)CC2)cc1 -11.2%
COc1ccc(-n2c(=O)c3ccc(C(=O)NCc4ccc(C)cc4)cc3n(Cc3ccc(F)cc3Cl)c2=O)cc1 -3.65%
CC1(C)N=C(c2ccc(F)cc2)C(=O)N1CC(=O)Nc1ccccc1Cl -0.808%
CCCC(=O)Nc1nc2c(s1)CC(C(C)(C)C)CC2 (stereo not drawn) -0.807%
Cc1ccc(Cn2c3ccccc3c3cnn(CC(=O)N4CCCCCC4)c(=O)c32)cc1 -14.7%
Cc1ccc(CN2C(=O)CC(c3ccc(Cl)cc3)c3c(C)nn(-c4nc(C)cc(C)n4)c32)cc1 (stereo not drawn) -3.78%
COc1ccc(-n2nc3c(c2NC(=O)C(=O)NCc2ccccc2)CSC3)cc1 -0.139%
COC(=O)c1cc2oc(C)cc2n1CC(=O)Nc1ccc(OC)c(OC)c1 0.0582%
COC(=O)c1ccc(NC(=O)CSc2nccn2Cc2ccc(Cl)cc2)cc1 -0.553%
CCOc1ccc(-n2c(=O)c3c(C)c(C)sc3n(Cc3c(F)cccc3Cl)c2=O)cc1 7.79%
COc1ccc(N2C(=O)CS(=O)(=O)C23C(=O)N(Cc2ccccc2)c2ccccc23)cc1 (stereo not drawn) 6.04%
COc1cccc(-c2nc(S(=O)(=O)c3ccc(C)cc3)c(NCc3ccccc3)o2)c1 -17.7%
Clc1cccc(N2CCN(c3nc4ccccc4c4nc(-c5ccccc5)nn34)CC2)c1 0.382%
CCOc1ccc(-c2nc(CSCC(=O)NCCc3ccccc3)c(C)o2)cc1 3.17%
COc1cccc(CNC(=O)CCCn2c(=O)c3cccn3c3ccc(F)cc32)c1OC 5.37%
Cc1cc(C)cc(NC(=O)Cn2c(=O)n(CCC(C)C)c(=O)c3cccnc32)c1 -7.3%
Cn1c(=O)cc(SCC(=O)NCCc2ccc(Cl)cc2)c2cc(Cl)ccc21 -0.44%
COc1ccc(-c2cc(C(C)=O)c(C)n2CCC(=O)Nc2cccc(C)c2C)cc1 -0.504%
O=C(CSc1nc2ccccc2c2nc(-c3ccccc3)nn12)Nc1ccc(F)cc1 -1.65%
O=C(Cn1c2ncccc2c(=O)n1-c1ccccc1)Nc1cccc(C(F)(F)F)c1 -6.75%
CCc1cccc(NC(=O)Cn2c(=O)n(Cc3ccccc3)c(=O)c3c(C)c(C(=O)N(C)C)sc32)c1 -1.79%
CCOc1ccccc1N(C)C(=O)c1cc(S(=O)(=O)NCc2ccc(C)cc2)ccc1F -11.6%
CN1CCN(C(=O)c2cnn(-c3ccccc3)c2C2CCN(C(=O)OC(C)(C)C)CC2)CC1 5.06%
CCc1nnc(SC(CC)C(=O)NCCOC)c2cc3occc3n12 (stereo not drawn) -8.39%
CCc1nn2c(=O)cc(COC(=O)c3cccc(NC(=O)COc4ccccc4F)c3)nc2s1 0%
COc1ccc(Cl)cc1NC(=O)c1cc(=O)c2cc(C)cc(C)c2o1 -5.69%
Cc1ccc(C)c(NC(=O)Cn2cc(S(=O)(=O)N3CCCC3)c(S(=O)(=O)N3CCCC3)c2)c1 -16.9%
Cc1cccc(NC(=O)CSc2nc(C)cc(C)c2C(=O)Nc2ccc(Cl)cc2)c1 0%
CCC(=O)C1=C(c2cccc([N+](=O)[O-])c2)N(C(=O)CC)n2c(nnc2C2CCCCC2)S1 -3.02%
CCc1ccc2c(c1)c(=O)c(S(=O)(=O)c1ccccc1)cn2CC(=O)Nc1cc(C)ccc1C -13.9%
COc1cc(NC(=O)CN(C)S(=O)(=O)c2ccc3c(c2)CCCC(=O)N3)cc(OC)c1OC -3.11%
Cc1ccc(CCNC(=O)Cn2ncc3c(=O)oc4ccccc4c32)cc1 -11%
Cc1ccccc1-c1nc(CS(=O)(=O)CC(=O)Nc2c(C)cccc2C)c(C)o1 -11.5%
Cc1cccc(-c2nc3c4ccccc4n(CC(=O)Nc4cccc(F)c4)c(=O)n3n2)c1 -0.454%
CC(C)(C)OC(=O)N1CCC(c2c(C(=O)N3CCN(c4ccccc4F)CC3)cnn2C(C)(C)C)CC1 -6.78%
CCOC(=O)C1CCN(c2csc3ccc(C)cc3c2=O)CC1 0.323%
COC(=O)c1cc2sc(C)cc2n1Cc1nc(-c2cccc(Br)c2)oc1C -2.69%
N#C/C(=C/c1ccccc1Cl)c1nc(-c2cc3ccccc3oc2=O)cs1 1.88%
COc1cc(C)ccc1OCCSc1nc2ccc(NC(=O)c3ccccc3F)cc2s1 -2.28%
O=C(Cn1c(=O)n(CC2CCCO2)c(=O)c2ccccc21)Nc1ccc(F)cc1F (stereo not drawn) -7.65%
COC(=O)c1cc(NC(=O)Cn2nc(-c3ccccc3)c3c(c2=O)CCCC3)cc(C(=O)OC)c1 0.307%
